In PubChem BioAssay AID504466 (National Center for Advancing Translational Sciences (NCATS), 2011):
Out of some 330,000 compounds screened, about 4,200 (1.3%) were called active. Inconclusive results, whose numbers are uncertain, are shown with a selection of clear calls. The call rests on the fitted dose curve; in most records, active means well fitted activation curve with a large enough effect; inconclusive means small, poorly fitted or top-dose-only effect; inactive means no such curve, though single readings can be large or run the other way. Where the call is inconclusive, the potency comes from a doubtful curve fit.
Potency means the concentration at half of the fitted maximal effect; tags describe the fitted curve by direction and shape.

Experiment: qHTS screen for small molecules that induce genotoxicity in human embryonic kidney (HEK293T) cells expressing luciferase-tagged ELG1; further: nearly all actives have a fitted effect of over 60% in size; on activity change, positive = activation: % of control where 0% means no effect
Details: HEK293T ELG1-luciferase reporter, luminescence, 16 h; series mostly up to 46 µM; activity change, positive = activation: at the top concentration
Summary of the method: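 Genotoxicity was scored as increased ELG1-luciferase reporter signal, measured by ONE-Glo luminescence (30 min, room temperature). Compound or vehicle exposure of the HEK293T reporter cells lasted 16 hr at 37°C.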
With `CN(C(=O)c1cccc(Nc2ccc(-c3ccc4c(c3)OCCO4)nn2)c1)C1CCCCC1` the “activity change, positive = activation” value was inactive: -20.6%. For `COc1cc(/C=C2\SC(=S)N(Nc3ncc(C(F)(F)F)cc3Cl)C2=O)ccc1O`, the “activity change, positive = activation” value was inactive: 7.05%. With `O=C(COC(=O)CNC(=O)c1ccc(F)cc1)Nc1cccc(S(=O)(=O)N2CCCC2)c1` the “activity change, positive = activation” value was inactive: 1.58%. In the case of `c1csc(-c2nc3ccccc3s2)c1`, the Potency is reported as inconclusive: 18.3 µM [activator, partial curve]. In the case of `COc1ccc(C(=O)NC(=O)COC(=O)c2ccc3ncsc3c2)cc1`, the Potency is reported as inconclusive: 20.6 µM [activator, partial curve, poor fit]. In the case of `Cc1nccc(-c2cc(-c3ccc(Cl)cc3Cl)no2)n1`, the Potency is reported as inconclusive: 7.3 µM [activator, partial curve]. With `CCCCN1CCc2c([nH]c3c(C)cccc23)C1=O` the Potency was inconclusive: 6.51 µM [activator, partial curve]. For `O=[N+]([O-])c1ccccc1/C=N\Nc1nccs1`, the “activity change, positive = activation” value was inactive: -0.763%. In the case of `O=C(/C=C/c1ccccc1)NCCC1=CCCCC1`, the Potency is reported as inconclusive: 11.6 µM [activator, partial curve, poor fit]. With `COC(=O)c1sc(-c2ccc(Cl)cc2)cc1NC(=O)CSCC(=O)O` the “activity change, positive = activation” value was inactive: -0.491%. With `Cc1cc(-c2nc3ccccc3c(=O)o2)ccc1[N+](=O)[O-]` the Potency was inconclusive: 20.6 µM [activator, single point]. For `O=C(Nc1ccc(F)cc1)C(=O)C1C(=O)Nc2ccccc21` (stereo unspecified), the “activity change, positive = activation” value was inactive: 0.562%. In the case of `COc1ccc(F)cc1Cn1nc(C(=O)O)c2ccccc2c1=O`, the “activity change, positive = activation” value is reported as inactive: 5.14%. For `C(=N\Nc1ncnc2nc[nH]c12)/c1cccs1`, the Potency was active: 16.4 µM. In the case of `COc1ccc(NC(=O)CSc2ccccc2)cn1`, the Potency is reported as inconclusive: 23.1 µM [activator, partial curve, poor fit]. For `O=C(c1ccco1)N1CCN(c2cccc(Cl)c2)CC1`, the Potency was inconclusive: 17.8 µM [activator, single point]. For `O=C(CCc1ccccc1)Nc1nc2n(n1)C(c1ccccc1)CC(=O)N2` (stereo unspecified), the “activity change, positive = activation” value was inactive: -9.04%. For `CCN(Cc1cc(=O)[nH]c2ccccc12)C(=O)c1ccc(C)cc1`, the “activity change, positive = activation” value was inactive: 4.04%. With `NS(=O)(=O)c1ccc(N=Nc2ccc(O)c3ncccc23)cc1` the Potency was inconclusive: 32.6 µM [activator, partial curve, poor fit]. With `CCOC(=O)c1sc(C)c2c(=O)n(Cc3ccc(Cl)cc3)cnc12` the Potency was inconclusive: 29.1 µM [activator, single point]. For `COc1ccc(-c2cc(=O)c3ccccc3o2)cc1`, the Potency was active: 20.6 µM. In the case of `COc1ccccc1/C=C/C(=O)NC(=S)Nc1ccccn1`, the Potency is reported as active: 23.1 µM. For `COc1ccc(-c2nnc(SCC(=O)N3CCCC3)o2)cc1`, the Potency was inconclusive: 18.3 µM [activator, partial curve, poor fit]. For `O=C(CCc1nnc(CCCCc2ccccc2)o1)NCCn1cccn1`, the “activity change, positive = activation” value was inactive: 0.177%. For `CCn1ncc(Br)c1C(=O)Nc1cc(C(=O)OC)ccc1C(=O)OC`, the Potency was inconclusive: 23.1 µM [activator, partial curve, poor fit]. In the case of `O=C(N/N=C/c1ccc(OC(F)F)cc1)C1=COCCO1`, the Potency is reported as inconclusive: 6.51 µM [activator, partial curve]. For `O=C(Nc1ccc2c(c1)OCO2)Nc1ccc2c(c1)OCO2`, the Potency was inconclusive: 2.59 µM [activator, partial curve]. With `c1c2c(cc3sc(N4CCCCC4)nc13)OCCO2` the Potency was inconclusive: 0.366 µM [activator, full curve]. In the case of `COc1ccc(NC(=O)c2c(N)no[n+]2[O-])cc1`, the “activity change, positive = activation” value is reported as inactive: 13.6%. For `COc1cccc(-c2noc(-c3ccc(Cl)nc3)n2)c1`, the Potency was inconclusive: 8.2 µM [activator, partial curve]. In the case of `O=C(Nc1nc2ccccc2[nH]1)c1ccc(Br)o1`, the Potency is reported as inconclusive: 2.06 µM [activator, full curve, poor fit]. For `Cc1ccc(-c2nc3cc(N)ccc3o2)cc1`, the Potency was active: 0.326 µM. For `CC(C)c1ccc(NC(=S)NNC(=O)c2cccs2)cc1`, the Potency was inconclusive: 10.3 µM [activator, partial curve, poor fit]. With `COc1ccccc1NC(=O)C(C)OC(=O)CCCc1c[nH]c2ccccc12` (stereo unspecified) the “activity change, positive = activation” value was inactive: 26.8%. For `COc1cc(=O)n(C)c2cc(N(C)C)ccc12`, the Potency was inconclusive: 20.6 µM [activator, partial curve]. With `CCN(CC)C(=O)c1cccc(-c2ccc(OC)cc2)c1` the Potency was inconclusive: 23.1 µM [activator, single point]. With `COc1ccc(N2CCN(CCNC(=O)c3ccc4c(c3)[nH]c(=S)n3c5ccccc5nc43)CC2)cc1` the Potency was inconclusive: 14.6 µM [activator, partial curve, poor fit]. For `O=C(CNC(=O)c1ccccc1)OC1CCCCC1`, the Potency was inconclusive: 2.82 µM [activator, full curve, poor fit]. With `C=CCN1C(=O)/C(=C\C(C)=C\c2ccccc2)SC1=S` the Potency was inconclusive: 32.6 µM [activator, partial curve, poor fit]. With `CCOC(=O)c1[nH]c2ccc(OC)cc2c1C` the Potency was inconclusive: 23.1 µM [activator, single point]. In the case of `CCOC(=O)N1CCN(C(=O)CNC(=O)c2nn(-c3ccc(OC)cc3OC)c(=O)c3ccccc23)CC1`, the Potency is reported as inconclusive: 23.1 µM [activator, partial curve, poor fit]. In the case of `O=c1[nH]c(-c2ccc(-c3cccc(Cl)c3)o2)nc2ccccc12`, the Potency is reported as active: 2.59 µM. With `COc1cccc(NC(=O)COC(=O)c2c(F)cccc2Cl)c1` the Potency was inconclusive: 11.6 µM [activator, partial curve, poor fit]. In the case of `CCOc1ccc(-c2cn[nH]c2N)cc1`, the Potency is reported as inconclusive: 11.6 µM [activator, partial curve]. For `Cc1ccc(NC(=O)CCc2c(C)nn(-c3ccc(N4CCCCC4)nn3)c2C)cc1F`, the Potency was inconclusive: 2.31 µM [activator, partial curve, poor fit]. For `CS(=O)(=O)Nc1ccccc1C(=O)Nc1ccc2c(c1)OCCO2`, the Potency was inconclusive: 7.31 µM [activator, partial curve, poor fit].
